Reference: article PMC10184318, “The fission yeast cytokinetic ring component Fic1 promotes septum formation” (Biology Open, 2023)
Where a chain is given by its changes, count along the chain named. In names and notes the source's numbering stands. Results are given in words; binding and its absence hold for the method and conditions named. Binding seen in cells or lysates may run through a third protein. Some entries that bind do so weakly or less than the wild type. For some assays here: Where a sequence is shown, tags or fusion partners need not be part of it. Blank lines part the entries; values can stand above or below the binder they belong to.

How the values were obtained:
[1] = target: T1, Cyk3-SH3-W43S-GST (S. pombe) (UniProt O14302); test: pull-down; bead-bound Cyk3-SH3-GST recombinant proteins incubated with lysate of cps1-191 fic1-FLAG3 S. pombe cells (36°C for 3 h before lysis); Cyk3 lysis buffer (50 mM Tris pH 7.5, 150 mM NaCl, 1 mM EDTA, 50 mM NaF, 0.5% NP-40, 0.1% SDS, 1 mM DTT); 4°C, 1 h; three washes; anti-FLAG immunoblot; only the target purified
T1 sequence: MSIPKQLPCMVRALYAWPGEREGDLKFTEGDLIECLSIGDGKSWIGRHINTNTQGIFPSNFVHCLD

[2] = target: T2, Cyk3-SH3-GST (aa1-66) (S. pombe) (UniProt O14302); test: as above
T2 sequence: T1 sequence with S43W

[3] = target: T3, Cdc15 (S. pombe (endogenous in S. pombe cells)) (UniProt Q09822); test: co-IP; co-immunoprecipitation with Cdc15 from lysates of S. pombe cells arrested in prometaphase by nda3-KM311
T3 sequence: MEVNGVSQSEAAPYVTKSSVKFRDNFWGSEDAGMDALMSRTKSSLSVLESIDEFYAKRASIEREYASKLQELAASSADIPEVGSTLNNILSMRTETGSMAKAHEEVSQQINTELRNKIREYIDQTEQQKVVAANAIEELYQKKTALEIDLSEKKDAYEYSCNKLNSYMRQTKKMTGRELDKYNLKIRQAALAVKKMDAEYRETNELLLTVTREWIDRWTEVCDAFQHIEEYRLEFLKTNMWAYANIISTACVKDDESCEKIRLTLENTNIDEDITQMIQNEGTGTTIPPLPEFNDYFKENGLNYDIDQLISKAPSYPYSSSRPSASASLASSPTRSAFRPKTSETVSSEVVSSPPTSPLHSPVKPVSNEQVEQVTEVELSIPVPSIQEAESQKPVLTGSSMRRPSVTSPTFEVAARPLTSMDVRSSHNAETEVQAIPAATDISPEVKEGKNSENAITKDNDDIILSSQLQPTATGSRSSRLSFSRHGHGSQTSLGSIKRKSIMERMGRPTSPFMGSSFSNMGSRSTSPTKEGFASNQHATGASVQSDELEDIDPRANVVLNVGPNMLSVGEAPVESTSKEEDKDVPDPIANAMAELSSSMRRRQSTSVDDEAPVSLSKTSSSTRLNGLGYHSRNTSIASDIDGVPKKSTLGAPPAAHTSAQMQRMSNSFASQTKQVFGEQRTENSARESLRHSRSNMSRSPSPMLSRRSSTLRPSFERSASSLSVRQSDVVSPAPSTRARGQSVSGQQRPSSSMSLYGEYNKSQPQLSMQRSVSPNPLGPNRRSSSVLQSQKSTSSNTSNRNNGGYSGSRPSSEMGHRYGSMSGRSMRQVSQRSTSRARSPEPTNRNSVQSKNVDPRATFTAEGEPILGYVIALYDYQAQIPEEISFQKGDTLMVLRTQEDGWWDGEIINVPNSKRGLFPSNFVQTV

B1: Fic1-FLAG3 (protein, UniProt O94701 1-272)
chain: MSKNPLGTLVVRIWKAKNLPNKALVGKQSPYCVCRVGEVVKRTQTDKRSGQEPSWNAVLEFNIPSESYHIMKITVFHEGFRKHPHLIGDTVLSFEKAMKEELQSEWYELKNEFQFAGELSVQFKFIPTDPLYFDRASSKPVLQFPYSSVAALTPVPKKPSKPSKPRKKVPVSHPLPPTPPSREEHVSVPRESSLFTYEDDPLPSFPSPYMVDDYYTQDVFVSDNVNDYSYGVQNPTNPRLSVEDYDANHSSLPPVPPPHLILPTASSSQIFH
binding [1]: no binding | binding [2]: binds

B4: Cyk3 (protein, UniProt O14302 1-886)
chain: MSIPKQLPCMVRALYAWPGEREGDLKFTEGDLIECLSIGDGKWWIGRHINTNTQGIFPSNFVHCLDIPTVRPGSSMSRTSASSFRYSSPQKSSIDTPITSSDQGLTPDLVGSSNALNKPTRESDSLKHQKSHPMLNSLGSSLSLKKSVSRPPSSMSRTNLDVSSRWDNTADNDSQIDAQDLSRSTPSPLRSAMENVLQSLNAMGKKSFSRANSPLLRLTKSTTTSKETDFIPVPPAHGSTSMTSRSKLDDSTDNSSKPRTSLQPGESPMKSSRDISRKPSMASSVLSPSDYFPQHRRFQSAPAPIPRPVSTLIPLTQVRTTASNVIKPRPQTTERPSTAQSFRKGGGFLKKTFKKLLRRGSSKRKPSLQPTPPVSYPAHNVPQKGVRPASPHTLKSVKDDLKRTKTYTKAEFAAKREEIFNKLSMPVYEPLKDLSECIGNVLADGEPVQFSVGTNIHNMNFSAIDKQIRSIIPQRVQVSPAVLAKNYLAPGQTTALAQMRAVFIYISERITFTNQTLDNDELRTSTQVISEGQGTPFEVALLVKEMLQALDLWCEVIEGYLKSPDDIYYTRDININHAWNVVTFDNEVRLIDASFASPTHPQQALKSSSSNDFYFLMKPNECIFTHVPENPDQQFIMPDLSMPIVMALPWVSSVYFTLGLKLRKFNTSILHLNDLEVLQIEFLAPKDIECVAEVDALSALAPTADVSQCYKYTLTQAFWETPDIRVMRVKAVMPANNRAAVLRIYAGRLGVSSPVRTAPHPMAMSLPFVHHGKNKALEFVTRHPVPHCPSVDLYINSPQCGTLHSGVEYKFNVSAYACQPSTSISNTRLAIQTPTGNIVRLREERSGNGVIFFSLSLTINETGEYRALILAEKIGRWVVYATWQAV
binding [3]: binds

Second part, the binder after the results:

binding [3]: binds
B2: Cyk3-W43S (protein, UniProt O14302 1-886)
chain: B4 chain with W43S

binding [3]: binds
B3: Cyk3-H577A (protein, UniProt O14302 1-886)
chain: B4 chain with H577A
